{
  "source": "PubChem BioAssay AID1508642",
  "about": "(National Center for Advancing Translational Sciences (NCATS), 2021)",
  "note": "The campaign covered roughly 43,000 compounds. About 200 (0.47%) were called active. About 12% were inconclusive and are not listed. Calls follow the shape of the dose curve; as a rule, active = well fitted cell-killing curve with a large enough effect; inconclusive = small, poorly fitted or top-dose-only effect, or effect the other way; inactive = flat fitted curve, though single readings scatter. This is one part of the list. % is scaled to controls: 0 for no effect and ±100 for the full control effect.",
  "data": [
    {"assay": "Cell viability qHTS assay in S16 Pmp22-F2sN cells; also: nearly all actives have a fitted effect of over 65% in size", "conditions": "S16 Pmp22-F2sN Schwann cells (luciferase reporters placed in the Pmp22 gene) viability, CellTiter-Glo, 24 h; series mostly up to 57.5 µM; activity change, negative = cytotoxicity: at the top concentration", "outline": "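Rat S16 Schwann reporter line, 24 h treatment with library compounds delivered at 23 nL per well. Cell viability by CellTiter-Glo luminescence.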", "values": [
      {"smiles": "COc1ccccc1-c1cc2nc(C)c(CCC(=O)O)c(C)n2n1", "activity change, negative = cytotoxicity": "inactive: -0.142%"},
      {"smiles": "CCC(=O)N1CCc2cc(S(=O)(=O)NCCC(=O)Nc3cc(C)ccc3OC)ccc21", "activity change, negative = cytotoxicity": "inactive: -8.04%"},
      {"smiles": "Cc1ccc2nc(-c3ccc(O)cc3)c(Nc3ccc(Cl)cc3)n2c1", "activity change, negative = cytotoxicity": "inactive: -0.638%"},
      {"smiles": "Cc1ccc(-c2nn(-c3ccc(F)cc3)c3c2cnc2cc(F)c(F)cc23)cc1", "activity change, negative = cytotoxicity": "inactive: 3.63%"},
      {"smiles": "CCCN(CCC)C(=O)Cn1c(=O)n(-c2ccc(Cl)cc2)c(=O)c2c3c(sc21)CCCCC3", "activity change, negative = cytotoxicity": "inactive: 17.1%"},
      {"smiles": "CCCc1cc(=O)[nH]c(SCC(=O)N2CCN(c3ccccc3OC)CC2)n1", "activity change, negative = cytotoxicity": "inactive: 11.1%"},
      {"smiles": "COC(=O)CCNC(=O)NC(CCC(C)C)c1c(-n2cccc2)sc2c1CCN(C)C2", "note": "(configuration not stated)", "activity change, negative = cytotoxicity": "inactive: 18.2%"},
      {"smiles": "O=S(=O)(c1ccc(-c2cc(C(F)(F)F)on2)s1)N1CCN(c2ccc(F)cc2)CC1", "activity change, negative = cytotoxicity": "inactive: 1.48%"},
      {"smiles": "COc1cc(NS(=O)(=O)c2cc3c(cc2C)N(C)CCO3)cc(OC)c1OC", "activity change, negative = cytotoxicity": "inactive: 3.01%"},
      {"smiles": "COc1ccc(NC(=O)C2CCCN(c3ncnc4c3nc3n4CCCCC3)C2)c(OC)c1", "note": "(configuration not stated)", "activity change, negative = cytotoxicity": "inactive: -0.426%"},
      {"smiles": "Cc1cc(Br)ccc1NC(=O)Cn1cc(S(=O)(=O)N2CCN(c3ccccc3F)CC2)c2ccccc2c1=O", "activity change, negative = cytotoxicity": "inactive: 0.0117%"},
      {"smiles": "Cc1ccc(-n2c3c(cc(-c4nc(-c5ccc(Cl)cc5)cs4)c2=O)C(=O)CC(C)(C)C3)cc1C", "activity change, negative = cytotoxicity": "inactive: 2.47%"},
      {"smiles": "C#CCSc1nc(-c2ccccc2)cc(-c2ccccc2)c1C#N", "activity change, negative = cytotoxicity": "inactive: 4.19%"},
      {"smiles": "CCOc1ccc(CNC(=O)c2cnc3sc(N4CCOCC4)nn3c2=O)cc1", "activity change, negative = cytotoxicity": "inactive: 4.37%"},
      {"smiles": "CCS(=O)(=O)N1CCc2cc(C(=O)Nc3ccc(C(=O)OC)cc3)ccc21", "activity change, negative = cytotoxicity": "inactive: 13%"},
      {"smiles": "CCn1cc(C(=O)N2CCN(c3cccc(Cl)c3)CC2)c2cc(OC)c(OC)cc2c1=O", "activity change, negative = cytotoxicity": "inactive: -0.329%"},
      {"smiles": "CC1=C(c2ccc(C(C)C)cc2)S(=O)(=O)NC1=NCCCN1CCN(c2ccccc2F)CC1", "activity change, negative = cytotoxicity": "inactive: 19.7%"},
      {"smiles": "Cc1ccc(C)c(N2CCN(C(=O)CCc3nnc4n(CC(C)C)c(=O)c5ccccc5n34)CC2)c1", "activity change, negative = cytotoxicity": "inactive: 13.4%"},
      {"smiles": "O=C(Nc1ccc(F)cc1F)c1cc(-c2ccc(Cl)cc2)on1", "activity change, negative = cytotoxicity": "inactive: 18.4%"},
      {"smiles": "CCOC(=O)c1ccc(NC(=O)CCn2c(=O)c3cccn3c3cccnc32)cc1", "activity change, negative = cytotoxicity": "inactive: 15.8%"},
      {"smiles": "CCc1cccc(NS(=O)(=O)c2ccc(-n3cccn3)cc2)c1", "activity change, negative = cytotoxicity": "inactive: -15.1%"},
      {"smiles": "CCN(CC)C(=O)Cn1c(=O)n(-c2ccc(C)c(C)c2)c(=O)c2c3c(sc21)CCCCC3", "activity change, negative = cytotoxicity": "inactive: 17.8%"},
      {"smiles": "COc1cccc(C(=O)Nc2cccc(-c3cn4ccsc4n3)c2)c1OC", "activity change, negative = cytotoxicity": "inactive: -8.17%"},
      {"smiles": "Cc1ccccc1-c1noc(-c2cccnc2N2CCN(c3ccccc3)CC2)n1", "activity change, negative = cytotoxicity": "inactive: 11.4%"},
      {"smiles": "Cc1cccc(-c2nc3c4ccccc4n(Cc4cccc(Cl)c4)c(=O)n3n2)c1", "activity change, negative = cytotoxicity": "inactive: -10.2%"},
      {"smiles": "O=C(CN1C(=O)COc2ccc(S(=O)(=O)N3CCOCC3)cc21)N1CCN(c2cccc(Cl)c2)CC1", "activity change, negative = cytotoxicity": "inactive: 3.22%"},
      {"smiles": "COc1ccc(NC(=O)c2ccc3c(SCC(=O)O)c4c(nc3c2)CCCC4)c(OC)c1", "activity change, negative = cytotoxicity": "inactive: 12.5%"},
      {"smiles": "CCOc1ccc(S(=O)(=O)c2cn(Cc3ccccc3C)c3ccc(OC)cc3c2=O)cc1", "activity change, negative = cytotoxicity": "inactive: -15.4%"},
      {"smiles": "CCc1nn(CC(=O)NCCCN2CCN(CC)CC2)c(=O)c2cc3occc3n12", "activity change, negative = cytotoxicity": "inactive: -5.36%"},
      {"smiles": "O=C(c1ccc(F)cc1)N1CCC(c2nc(-c3ccc(S(=O)(=O)N4CCCC4)cc3)no2)CC1", "activity change, negative = cytotoxicity": "inactive: 13.6%"},
      {"smiles": "COc1ccccc1N(CC(=O)Nc1ccc2c(c1)OCO2)S(=O)(=O)c1ccc(C)cc1", "activity change, negative = cytotoxicity": "inactive: 7.15%"},
      {"smiles": "O=C(Cn1cnc2onc(-c3ccc(F)cc3)c2c1=O)Nc1ccc(F)c(Cl)c1", "activity change, negative = cytotoxicity": "inactive: 1.24%"},
      {"smiles": "O=C(CN1c2ccccc2S(=O)(=O)c2ccccc21)Nc1ccccc1Cl", "activity change, negative = cytotoxicity": "inactive: -7.15%"},
      {"smiles": "NC(=O)Cn1c(=O)n(CCCCCC(=O)NCc2ccc(F)cc2)c(=O)c2sccc21", "activity change, negative = cytotoxicity": "inactive: 20.6%"},
      {"smiles": "O=C(C1COc2ccccc2O1)N(Cc1cccnc1)c1nc2c(Cl)cccc2s1", "note": "(configuration not stated)", "activity change, negative = cytotoxicity": "inactive: -1.26%"},
      {"smiles": "COc1ccc(OC)c(NC(=O)CSc2ncc3c(n2)-c2ccccc2N(C)S3(=O)=O)c1", "activity change, negative = cytotoxicity": "inactive: 2.41%"},
      {"smiles": "CCCNC(=O)c1ccc(-c2nc(CS(=O)(=O)c3ccc(C)cc3)c(C)o2)cc1", "activity change, negative = cytotoxicity": "inactive: -4.12%"},
      {"smiles": "Cc1ccc2c(c1)c(CC(=O)Nc1ccc(C)c(F)c1)c(C(=O)O)n2C", "activity change, negative = cytotoxicity": "inactive: 2.68%"},
      {"smiles": "Cc1ccc2nc(COc3ccccc3NC(=O)c3ccccc3F)cc(=O)n2c1", "activity change, negative = cytotoxicity": "inactive: 9.88%"},
      {"smiles": "CCOc1cccc(C2c3[nH]c4ccccc4c3CCN2C(=O)CSCc2ccc(F)cc2)c1", "note": "(configuration not stated)", "activity change, negative = cytotoxicity": "inactive: -17%"},
      {"smiles": "CCc1cccc(NC(=O)C2Cc3ccccc3N2C(=O)c2ccccc2)c1", "note": "(configuration not stated)", "activity change, negative = cytotoxicity": "inactive: -7.08%"},
      {"smiles": "CCOc1ccc(C(=O)N(Cc2cc(OC)c(OC)c(OC)c2)c2ccccn2)cc1", "activity change, negative = cytotoxicity": "inactive: 2.17%"},
      {"smiles": "COc1ccc(N(CC(=O)Nc2cccc(C(C)=O)c2)S(=O)(=O)c2ccccc2)c(OC)c1", "activity change, negative = cytotoxicity": "inactive: -0.912%"},
      {"smiles": "CCOC(=O)C1=C(C)NC(=O)NC1c1cn(-c2ccccc2)nc1-c1ccc(OC(C)C)cc1", "note": "(configuration not stated)", "activity change, negative = cytotoxicity": "inactive: 0.111%"},
      {"smiles": "Cc1nn(C)c2c1c(C(F)(F)F)cc(=O)n2C(C)C(=O)NCCc1ccccc1", "note": "(configuration not stated)", "activity change, negative = cytotoxicity": "inactive: 8.7%"},
      {"smiles": "CCc1ccc(NC(=O)C(NS(=O)(=O)c2cccc3nsnc23)c2ccccc2)cc1", "note": "(configuration not stated)", "activity change, negative = cytotoxicity": "inactive: 4.92%"},
      {"smiles": "Nc1cc(=O)nc(SCC(=O)Nc2ccc(F)cc2)n1-c1cccc(Cl)c1", "activity change, negative = cytotoxicity": "inactive: 6.86%"}
    ]}
  ]
}
